Experimental data from PMC12820563, “FoxP3 forms a head-to-head dimer in vivo and stabilizes its multimerization on adjacent microsatellites”.
The list shows a part of the results.

What follows are sequences tested against T1, MBP-FoxP1dN (Mus musculus, UniProt P58462 326-579) (assay: PD-seq (MBP pull-down with sequencing); 20 mM Tris-HCl pH 7.5, 100 mM NaCl, 1.5 mM MgCl2, 0.4 uM protein, 0.1 uM dsDNA library, 30 min, room temperature, amylose pull-down; high values mean tight binding). Details: protein: recombinant; tags: His6-MBP; chain copies: 2; dsDNA, one strand shown.
T1 sequence: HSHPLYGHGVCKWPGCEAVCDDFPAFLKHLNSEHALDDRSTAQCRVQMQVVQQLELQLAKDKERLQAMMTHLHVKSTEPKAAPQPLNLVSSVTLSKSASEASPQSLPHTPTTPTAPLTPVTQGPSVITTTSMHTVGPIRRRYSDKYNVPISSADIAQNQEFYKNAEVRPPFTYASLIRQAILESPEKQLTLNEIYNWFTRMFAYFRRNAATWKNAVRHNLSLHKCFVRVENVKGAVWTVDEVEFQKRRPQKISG
Summary of the method: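 Binding is given as reads-per-million enrichment, pull-down over input, with replicates pooled. The bait was an N-terminus-lacking mouse FoxP3 or FoxP1 fragment with a His6-MBP tag, expressed in E. coli and used at 0.4 µM with 0.1 µM Klenow-filled degenerate double-stranded DNA library for 30 min at room temperature in Tris pH 7.5 buffer with NaCl and MgCl2. Amylose resin pull-down with three washes was followed by proteinase K release, PCR barcoding and Illumina sequencing.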

| Sequence | binding signal |
| --- | --- |
| GATGATTGTTCTCCCAGCTGATGAATTAGATAAATCGAGTAAACAAATTTTCCTAATCTTTCTGTTCAAGCGCCATCTAC | 1.24 RPM ratio (pull-down/input) |
| GATGATTGTTCTCCCAGCTGATGAATTAAAGTGGTCGAGTAAACAAATTTTCCTAATCTTTCTGTTCAAGCGCCATCTAC | 0.825 RPM ratio (pull-down/input) |
| GATGATTGTTCTCCCAGCTGATGAATTCTCTGATTCGAGTAAACAAATTTTCCTAATCTTTCTGTTCAAGCGCCATCTAC | 0.893 RPM ratio (pull-down/input) |
| GATGATTGTTCTCCCAGCTGATGAATTTCTGTGTTCGAGTAAACAAATTTTCCTAATCTTTCTGTTCAAGCGCCATCTAC | 1.23 RPM ratio (pull-down/input) |
| GATGATTGTTCTCCCAGCTGATGAATTCCGCAAGTCGAGTAAACAAATTTTCCTAATCTTTCTGTTCAAGCGCCATCTAC | 0.779 RPM ratio (pull-down/input) |
| GATGATTGTTCTCCCAGCTGATGAATTCCGCGAATCGAGTAAACAAATTTTCCTAATCTTTCTGTTCAAGCGCCATCTAC | 0.865 RPM ratio (pull-down/input) |
| GATGATTGTTCTCCCAGCTGATGAATTCCGCCCATCGAGTAAACAAATTTTCCTAATCTTTCTGTTCAAGCGCCATCTAC | 0.788 RPM ratio (pull-down/input) |
| GATGATTGTTCTCCCAGCTGATGAATTTGGTTTGTCGAGTAAACAAATTTTCCTAATCTTTCTGTTCAAGCGCCATCTAC | 1.15 RPM ratio (pull-down/input) |
| GATGATTGTTCTCCCAGCTGATGAATTCATCACTTCGAGTAAACAAATTTTCCTAATCTTTCTGTTCAAGCGCCATCTAC | 0.937 RPM ratio (pull-down/input) |
| GATGATTGTTCTCCCAGCTGATGAATTATGCGTCTCGAGTAAACAAATTTTCCTAATCTTTCTGTTCAAGCGCCATCTAC | 1.04 RPM ratio (pull-down/input) |
| GATGATTGTTCTCCCAGCTGATGAATTGACACACTCGAGTAAACAAATTTTCCTAATCTTTCTGTTCAAGCGCCATCTAC | 1.26 RPM ratio (pull-down/input) |
| GATGATTGTTCTCCCAGCTGATGAATTGATGACATCGAGTAAACAAATTTTCCTAATCTTTCTGTTCAAGCGCCATCTAC | 1.34 RPM ratio (pull-down/input) |
| GATGATTGTTCTCCCAGCTGATGAATTCATGCGCTCGAGTAAACAAATTTTCCTAATCTTTCTGTTCAAGCGCCATCTAC | 0.945 RPM ratio (pull-down/input) |
| GATGATTGTTCTCCCAGCTGATGAATTACATTTGTCGAGTAAACAAATTTTCCTAATCTTTCTGTTCAAGCGCCATCTAC | 1.38 RPM ratio (pull-down/input) |
| GATGATTGTTCTCCCAGCTGATGAATTTTCCATCTCGAGTAAACAAATTTTCCTAATCTTTCTGTTCAAGCGCCATCTAC | 0.91 RPM ratio (pull-down/input) |
| GATGATTGTTCTCCCAGCTGATGAATTTGGAAGGTCGAGTAAACAAATTTTCCTAATCTTTCTGTTCAAGCGCCATCTAC | 0.791 RPM ratio (pull-down/input) |
| GATGATTGTTCTCCCAGCTGATGAATTTGACGCATCGAGTAAACAAATTTTCCTAATCTTTCTGTTCAAGCGCCATCTAC | 1.1 RPM ratio (pull-down/input) |
| GATGATTGTTCTCCCAGCTGATGAATTAGTATCATCGAGTAAACAAATTTTCCTAATCTTTCTGTTCAAGCGCCATCTAC | 1.22 RPM ratio (pull-down/input) |
| GATGATTGTTCTCCCAGCTGATGAATTCGGCTGGTCGAGTAAACAAATTTTCCTAATCTTTCTGTTCAAGCGCCATCTAC | 0.77 RPM ratio (pull-down/input) |
| GATGATTGTTCTCCCAGCTGATGAATTCCGGTCCTCGAGTAAACAAATTTTCCTAATCTTTCTGTTCAAGCGCCATCTAC | 0.772 RPM ratio (pull-down/input) |
| GATGATTGTTCTCCCAGCTGATGAATTTGCGCCCTCGAGTAAACAAATTTTCCTAATCTTTCTGTTCAAGCGCCATCTAC | 0.91 RPM ratio (pull-down/input) |

| Sequence | binding signal |
| --- | --- |
| GATGATTGTTCTCCCAGCTGATGAATTACAGTCCTCGAGTAAACAAATTTTCCTAATCTTTCTGTTCAAGCGCCATCTAC | 0.999 RPM ratio (pull-down/input) |
| GATGATTGTTCTCCCAGCTGATGAATTCCTCTTTTCGAGTAAACAAATTTTCCTAATCTTTCTGTTCAAGCGCCATCTAC | 0.976 RPM ratio (pull-down/input) |
| GATGATTGTTCTCCCAGCTGATGAATTTGGCTACTCGAGTAAACAAATTTTCCTAATCTTTCTGTTCAAGCGCCATCTAC | 0.949 RPM ratio (pull-down/input) |
| GATGATTGTTCTCCCAGCTGATGAATTCAACCGATCGAGTAAACAAATTTTCCTAATCTTTCTGTTCAAGCGCCATCTAC | 0.857 RPM ratio (pull-down/input) |
| GATGATTGTTCTCCCAGCTGATGAATTGGACGTATCGAGTAAACAAATTTTCCTAATCTTTCTGTTCAAGCGCCATCTAC | 0.961 RPM ratio (pull-down/input) |
| GATGATTGTTCTCCCAGCTGATGAATTTCCGAAATCGAGTAAACAAATTTTCCTAATCTTTCTGTTCAAGCGCCATCTAC | 0.949 RPM ratio (pull-down/input) |
| GATGATTGTTCTCCCAGCTGATGAATTCCTACGGTCGAGTAAACAAATTTTCCTAATCTTTCTGTTCAAGCGCCATCTAC | 0.765 RPM ratio (pull-down/input) |
| GATGATTGTTCTCCCAGCTGATGAATTTGATGATTCGAGTAAACAAATTTTCCTAATCTTTCTGTTCAAGCGCCATCTAC | 0.978 RPM ratio (pull-down/input) |
| GATGATTGTTCTCCCAGCTGATGAATTTGGTAACTCGAGTAAACAAATTTTCCTAATCTTTCTGTTCAAGCGCCATCTAC | 0.906 RPM ratio (pull-down/input) |
| GATGATTGTTCTCCCAGCTGATGAATTCCTAAGCTCGAGTAAACAAATTTTCCTAATCTTTCTGTTCAAGCGCCATCTAC | 0.799 RPM ratio (pull-down/input) |
| GATGATTGTTCTCCCAGCTGATGAATTTAGAATTTCGAGTAAACAAATTTTCCTAATCTTTCTGTTCAAGCGCCATCTAC | 0.998 RPM ratio (pull-down/input) |
| GATGATTGTTCTCCCAGCTGATGAATTAGGTCCATCGAGTAAACAAATTTTCCTAATCTTTCTGTTCAAGCGCCATCTAC | 0.933 RPM ratio (pull-down/input) |
| GATGATTGTTCTCCCAGCTGATGAATTAACTGGCTCGAGTAAACAAATTTTCCTAATCTTTCTGTTCAAGCGCCATCTAC | 0.808 RPM ratio (pull-down/input) |
| GATGATTGTTCTCCCAGCTGATGAATTCTCACAGTCGAGTAAACAAATTTTCCTAATCTTTCTGTTCAAGCGCCATCTAC | 0.875 RPM ratio (pull-down/input) |
| GATGATTGTTCTCCCAGCTGATGAATTAGTCAGTTCGAGTAAACAAATTTTCCTAATCTTTCTGTTCAAGCGCCATCTAC | 0.921 RPM ratio (pull-down/input) |
| GATGATTGTTCTCCCAGCTGATGAATTTGCCATTTCGAGTAAACAAATTTTCCTAATCTTTCTGTTCAAGCGCCATCTAC | 1.13 RPM ratio (pull-down/input) |
| GATGATTGTTCTCCCAGCTGATGAATTAGGCTAGTCGAGTAAACAAATTTTCCTAATCTTTCTGTTCAAGCGCCATCTAC | 0.833 RPM ratio (pull-down/input) |
| GATGATTGTTCTCCCAGCTGATGAATTTGGAGGGTCGAGTAAACAAATTTTCCTAATCTTTCTGTTCAAGCGCCATCTAC | 0.772 RPM ratio (pull-down/input) |
| GATGATTGTTCTCCCAGCTGATGAATTGCGACGCTCGAGTAAACAAATTTTCCTAATCTTTCTGTTCAAGCGCCATCTAC | 1.04 RPM ratio (pull-down/input) |
| GATGATTGTTCTCCCAGCTGATGAATTTTCAAAATCGAGTAAACAAATTTTCCTAATCTTTCTGTTCAAGCGCCATCTAC | 1.19 RPM ratio (pull-down/input) |
| GATGATTGTTCTCCCAGCTGATGAATTACGCACATCGAGTAAACAAATTTTCCTAATCTTTCTGTTCAAGCGCCATCTAC | 1.13 RPM ratio (pull-down/input) |

| Sequence | binding signal |
| --- | --- |
| GATGATTGTTCTCCCAGCTGATGAATTGGTGATATCGAGTAAACAAATTTTCCTAATCTTTCTGTTCAAGCGCCATCTAC | 1.18 RPM ratio (pull-down/input) |
| GATGATTGTTCTCCCAGCTGATGAATTGGTTTAGTCGAGTAAACAAATTTTCCTAATCTTTCTGTTCAAGCGCCATCTAC | 0.972 RPM ratio (pull-down/input) |
| GATGATTGTTCTCCCAGCTGATGAATTCGTGGGTTCGAGTAAACAAATTTTCCTAATCTTTCTGTTCAAGCGCCATCTAC | 0.815 RPM ratio (pull-down/input) |
| GATGATTGTTCTCCCAGCTGATGAATTATTGCAGTCGAGTAAACAAATTTTCCTAATCTTTCTGTTCAAGCGCCATCTAC | 1.17 RPM ratio (pull-down/input) |
| GATGATTGTTCTCCCAGCTGATGAATTCCGGTCATCGAGTAAACAAATTTTCCTAATCTTTCTGTTCAAGCGCCATCTAC | 0.836 RPM ratio (pull-down/input) |
| GATGATTGTTCTCCCAGCTGATGAATTAGTTTTATCGAGTAAACAAATTTTCCTAATCTTTCTGTTCAAGCGCCATCTAC | 1.02 RPM ratio (pull-down/input) |
| GATGATTGTTCTCCCAGCTGATGAATTTTCGTCCTCGAGTAAACAAATTTTCCTAATCTTTCTGTTCAAGCGCCATCTAC | 0.907 RPM ratio (pull-down/input) |
| GATGATTGTTCTCCCAGCTGATGAATTCGTTCGGTCGAGTAAACAAATTTTCCTAATCTTTCTGTTCAAGCGCCATCTAC | 0.762 RPM ratio (pull-down/input) |
| GATGATTGTTCTCCCAGCTGATGAATTAGAGTTATCGAGTAAACAAATTTTCCTAATCTTTCTGTTCAAGCGCCATCTAC | 0.959 RPM ratio (pull-down/input) |
| GATGATTGTTCTCCCAGCTGATGAATTAATGAAATCGAGTAAACAAATTTTCCTAATCTTTCTGTTCAAGCGCCATCTAC | 0.987 RPM ratio (pull-down/input) |
| GATGATTGTTCTCCCAGCTGATGAATTATGGTCTTCGAGTAAACAAATTTTCCTAATCTTTCTGTTCAAGCGCCATCTAC | 1.03 RPM ratio (pull-down/input) |
| GATGATTGTTCTCCCAGCTGATGAATTACTCCACTCGAGTAAACAAATTTTCCTAATCTTTCTGTTCAAGCGCCATCTAC | 0.986 RPM ratio (pull-down/input) |
| GATGATTGTTCTCCCAGCTGATGAATTAACAGCGTCGAGTAAACAAATTTTCCTAATCTTTCTGTTCAAGCGCCATCTAC | 1 RPM ratio (pull-down/input) |
| GATGATTGTTCTCCCAGCTGATGAATTCATAATATCGAGTAAACAAATTTTCCTAATCTTTCTGTTCAAGCGCCATCTAC | 1.38 RPM ratio (pull-down/input) |
| GATGATTGTTCTCCCAGCTGATGAATTATATCTATCGAGTAAACAAATTTTCCTAATCTTTCTGTTCAAGCGCCATCTAC | 0.985 RPM ratio (pull-down/input) |
| GATGATTGTTCTCCCAGCTGATGAATTGACGGACTCGAGTAAACAAATTTTCCTAATCTTTCTGTTCAAGCGCCATCTAC | 0.907 RPM ratio (pull-down/input) |
| GATGATTGTTCTCCCAGCTGATGAATTGGTAAACTCGAGTAAACAAATTTTCCTAATCTTTCTGTTCAAGCGCCATCTAC | 1.46 RPM ratio (pull-down/input) |
| GATGATTGTTCTCCCAGCTGATGAATTCAGGGAATCGAGTAAACAAATTTTCCTAATCTTTCTGTTCAAGCGCCATCTAC | 0.936 RPM ratio (pull-down/input) |
| GATGATTGTTCTCCCAGCTGATGAATTCGGACGCTCGAGTAAACAAATTTTCCTAATCTTTCTGTTCAAGCGCCATCTAC | 0.864 RPM ratio (pull-down/input) |
| GATGATTGTTCTCCCAGCTGATGAATTCGCTTCGTCGAGTAAACAAATTTTCCTAATCTTTCTGTTCAAGCGCCATCTAC | 0.818 RPM ratio (pull-down/input) |
| GATGATTGTTCTCCCAGCTGATGAATTGGCGAGCTCGAGTAAACAAATTTTCCTAATCTTTCTGTTCAAGCGCCATCTAC | 0.738 RPM ratio (pull-down/input) |
